Substitutions are numbered along the chain they refer to.
Biological target: T1, human neutrophil elastase (human, UniProt P08246 30-247)
T1 construct: also called HNE; immobilized HNE
T1 sequence (looked up): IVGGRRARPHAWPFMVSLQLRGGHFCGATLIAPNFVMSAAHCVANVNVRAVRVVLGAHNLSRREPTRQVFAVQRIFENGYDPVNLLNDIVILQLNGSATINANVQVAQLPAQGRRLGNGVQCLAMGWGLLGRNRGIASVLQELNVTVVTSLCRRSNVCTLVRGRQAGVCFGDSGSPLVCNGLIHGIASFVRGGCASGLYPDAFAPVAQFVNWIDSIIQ
Assay: clone from pH 2.0 eluate after 3 rounds of affinity selection of the KLMUT library on immobilized HNE (second fractionation)

B1: EpiNE7.21 display phage (designed binder)
chain: RPDFCLEPPYTGPCVAMFPRYFYNAKAGLCQTFHYGGCWGQGNNFKSAEDCMRTCGGA
notes: not shown: M13 gene III protein, mature
B1: binds.

B2: EpiNE7.22 display phage (designed binder)
chain: B1 chain with Q41E
notes: as for B1
B2: binds.

B3: EpiNE7.24 display phage (designed binder)
chain: B1 chain with H34K, W39H, Q41N
notes: as for B1
B3: binds.

B4: EpiNE7.25 display phage (designed binder)
chain: B1 chain with H34P, G40A, Q41K, S47L
notes: as for B1
B4: binds.

B5: EpiNE7.26 display phage (designed binder)
chain: B1 chain with H34K, Q41H
notes: as for B1
B5: binds.

B6: EpiNE7.27 display phage (designed binder)
chain: B1 chain with H34N, Q41K
notes: as for B1
B6: binds.

B7: EpiNE7.28 display phage (designed binder)
chain: B1 chain with H34T, W39L, Q41H
notes: as for B1
B7: binds.

B8: EpiNE7.29 display phage (designed binder)
chain: B1 chain with H34T, W39L, Q41Y
notes: as for B1
B8: binds.

B9: EpiNE7.30 display phage (designed binder)
chain: B1 chain with H34K, G40A, Q41E
notes: also called EpiNE7.34; EpiNE7.35; not shown: M13 gene III protein, mature
B9: binds.

B10: EpiNE7.32 display phage (designed binder)
chain: B1 chain with H34G, Q41E
notes: as for B1
B10: binds.

B11: EpiNE7.33 display phage (designed binder)
chain: B1 chain with H34E, G40A, Q41N
notes: as for B1
B11: binds.

B12: EpiNE7.37 display phage (designed binder)
chain: B1 chain with H34M, W39Q, Q41K
notes: as for B1
B12: binds.

B13: EpiNE7.38 display phage (designed binder)
chain: B1 chain with H34Y, G40A, Q41K
notes: as for B1
B13: binds.

B14: EpiNE7.39 display phage (designed binder)
chain: B1 chain with H34M, Q41D
notes: as for B1
B14: binds.

B15: EpiNE7.40 display phage (designed binder)
chain: B1 chain with H34T, W39H, Q41N
notes: as for B1
B15: binds.

— US20070259417A1 (published 2007)
